Assay results: article PMC6664820, “Novel natural and synthetic inhibitors of solute carriers SGLT1 and SGLT2” (Pharmacology Research & Perspectives, 2019)
In all, about 1,900 compounds went through this assay and about 40 (2%) showed an effect of 50% or more. Some of the results follow. Residues, ends and D or L forms follow the SMILES beside them.

target: human SGLT1 (hSGLT1) (human, UniProt P13866); test: primary screen, percent of control activity; higher = less effect of the substance; parameters: single well; details: 50 µM
Procedure: Two days before the assay, CHO‐wild type and CHO‐hSGLT1 cells were seeded in maintenance medium at 25 000 cells/well in clear‐bottom black 96‐well cell culture plates. Before the assay, cells were washed 3 times with 150 μL/well D‐glucose free DMEM with 0.3% (w/v) BSA. Library compounds at 50 μmol/L (singlicate) prepared in D‐glucose free DMEM with 160 μmol/L 1‐NBD‐glucose and 0.3% (w/v) BSA and negative controls (triplicate) were added at 100 μL/well and placed in a humidified incubator at 37°C with 5% CO2 for 90 minutes. Next, cells were washed 3 times with DMEM with 0.3% (w/v) BSA (150 μL/well). Care was taken to remove all medium after the last wash. Finally, 1‐NBD‐glucose was extracted from the cells by adding 10 μL/well isopropanol and orbital shaking for 5 minutes at 600 rpm, followed by incubation in the dark for 30 minutes. Fluorescence was measured on a Tecan Infinite M200 Microplate Reader (Tecan, Männedorf, Switzerland) with excitation at 445 nm and emission at 525 nm. The amount of 1‐NBD‐glucose taken up by the CHO‐wild type or CHO‐hSGLT1 cells in the presence or absence of test compounds was interpolated from 1‐NBD‐glucose calibration standards. The background uptake by CHO‐wild type was subtracted from the uptake by CHO‐hSGLT1. Background corrected uptake with test compound was expressed as a percentage of corrected uptake without test compound.

human SGLT1 (hSGLT1), sequence (P13866 whole entry, looked up): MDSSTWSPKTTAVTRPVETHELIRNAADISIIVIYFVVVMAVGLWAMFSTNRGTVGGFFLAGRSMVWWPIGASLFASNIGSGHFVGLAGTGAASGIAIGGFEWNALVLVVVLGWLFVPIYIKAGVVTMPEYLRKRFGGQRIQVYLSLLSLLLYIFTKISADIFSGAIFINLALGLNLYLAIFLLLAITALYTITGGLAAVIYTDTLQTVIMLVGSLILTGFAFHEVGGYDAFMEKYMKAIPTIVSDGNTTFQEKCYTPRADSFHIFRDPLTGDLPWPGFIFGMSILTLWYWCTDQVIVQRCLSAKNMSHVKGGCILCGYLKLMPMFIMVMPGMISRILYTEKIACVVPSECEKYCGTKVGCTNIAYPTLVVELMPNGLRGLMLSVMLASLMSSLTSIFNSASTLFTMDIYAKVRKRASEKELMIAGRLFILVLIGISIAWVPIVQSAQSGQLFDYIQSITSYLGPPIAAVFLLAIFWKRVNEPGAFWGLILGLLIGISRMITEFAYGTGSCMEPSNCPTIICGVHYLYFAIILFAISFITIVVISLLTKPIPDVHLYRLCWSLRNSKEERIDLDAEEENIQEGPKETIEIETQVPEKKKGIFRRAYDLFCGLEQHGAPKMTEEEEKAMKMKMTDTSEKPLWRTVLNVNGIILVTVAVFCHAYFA

| SMILES | NORMALIZED SGLT1 ACTIVITY (%) |
| --- | --- |
| O=C(CCCN1CC=C(n2c(=O)[nH]c3ccccc32)CC1)c1ccc(F)cc1 | 131 |
| Cl.Clc1ccc(C(OCCN2CCCCC2)c2ccccc2)cc1 (stereo not drawn) | 37 |
| COc1cc2c(cc1OC)C(C)NCC2 (stereo not drawn) | 73 |
| Cl.NCC(=O)c1ccccc1 | 104 |
| COc1cc(C)c2c(c1C=O)Oc1c(c(C)c(O)c3c1C(O)OC3=O)OC2=O (stereo not drawn) | 216 |
| CC(=O)OCC1=C(C(=O)[O-])N2C(=O)[C@@H](NC(=O)CSc3ccncc3)[C@H]2SC1.[Na+] | 84 |
| Oc1ccc(Cl)c2cccnc12 | 208 |
| COC(=O)[C@@]1(C)CCC[C@]2(C)c3ccc(O)c(C(C)C)c3CCC12 (stereo partly drawn) | 138 |
| CC(CCc1ccccc1)NC(C)C(O)c1ccc(O)cc1.Cl (stereo not drawn) | 99 |
| CC[C@H]1OC(=O)[C@H](C)[C@@H](O[C@H]2C[C@@](C)(OC)[C@@H](O)[C@H](C)O2)[C@H](C)[C@@H](O[C@@H]2O[C@H](C)C[C@H](N(C)C)[C@H]2O)[C@](C)(O)C[C@@H](C)C(=O)[C@H](C)[C@@H](O)[C@]1(C)O | 94 |
| C[C@@H]1CCC2[C@](C)(CO)[C@@H](O)CC[C@]2(C)[C@@]12CC[C@@](CO)(CCO)O2 (stereo partly drawn) | 101 |
| CC(=O)NCCc1c[nH]c2ccc(O)cc12 | 138 |
| CNC(C)[C@@H]1CC[C@@H](N)[C@@H](OC2[C@@H](N)C[C@@H](N)[C@H](OC3OC[C@](C)(O)[C@H](NC)[C@H]3O)[C@H]2O)O1.O=S(=O)(O)O (stereo partly drawn) | 95 |
| Cl.O=C1NCC2(CCN(CCc3ccccc3)CC2)O1 | 104 |
| CS(=O)(=O)OCCCCOS(C)(=O)=O | 96 |
| C[N+]1(CCCCC[N+]2(C)CCCC2)CCCC1.O=C([O-])C(O)C(O)C(=O)O.O=C([O-])C(O)C(O)C(=O)O | 111 |
| N=C(NCCC[C@H](N)C(=O)O)N[N+](=O)[O-] | 94 |
| O=c1cc(-c2ccccc2)oc2cc(O)c(O)c(O)c12 | 155 |
| CCCN(CCC)C(=O)C(CCC(=O)O)NC(=O)c1ccccc1 (stereo not drawn) | 104 |
| CCCCC[C@H](CC(=O)O)C(=O)O | 154 |
| C=C1CC2OC2(C)CC[C@@H]2[C@@H]1CC2(C)C (stereo partly drawn) | 84 |
| CC(=O)Nc1ccc(O)cc1 | 103 |

| SMILES | NORMALIZED SGLT1 ACTIVITY (%) |
| --- | --- |
| C/C=C(/C(=C/C)c1ccc(O)cc1)c1ccc(O)cc1 | 97 |
| CCOc1ccc(C(=O)c2ccc(OC)c(O)c2O)cc1 | 233 |
| CCC(CCC(C)[C@H]1CCC2C3CC=C4C[C@@H](O)CC[C@]4(C)C3CC[C@@]21C)C(C)C (stereo partly drawn) | 106 |
| COC(=O)C[C@H]1C(C)(C)C(OC(C)=O)[C@]2(O)C=C3C4CC(=O)O[C@@H](c5ccoc5)[C@]4(C)CCC3[C@@]1(C)C2=O (stereo partly drawn) | 98 |
| CC(=O)O[C@H]1CC[C@@]2(C)C(=CC(=O)C3C4CCC(C(C)CCCC(C)C)[C@@]4(C)CCC32)C1 (stereo partly drawn) | 121 |
| C=CCSCC1Nc2cc(Cl)c(S(N)(=O)=O)cc2S(=O)(=O)N1 (stereo not drawn) | 103 |
| COc1cc2c(cc1OC)-c1cc3ccc(OC)c(OC)c3c[n+]1CC2.[Cl-] | 104 |
| COc1ccc(C2CC(=O)c3ccc(OC)cc3O2)cc1 (stereo not drawn) | 122 |
| COc1cc2ccc(=O)oc2c(O)c1O | 142 |
| COc1ccc(C(=O)c2ccc(O)cc2)c(O)c1O | 377 |
| Nc1nc(O)c2nc(C(=O)O)cnc2n1 | 97 |
| CC1(C)C(=O)C=C[C@@]2(C)C1C=C[C@]1(C)C2CC[C@@]2(C)[C@H](c3ccoc3)OC(=O)[C@H]3O[C@]321 (stereo partly drawn) | 64 |
| COC(=O)c1c(C)c2c(c(C)c1O)OC(=O)c1c(C)c(Cl)c(O)c(Cl)c1O2 | 877 |
| CC(=O)NC1CCSC1=O (stereo not drawn) | 91 |
| C[C@]12CC[C@@H]3c4ccc(O)cc4CC[C@H]3[C@@H]1C[C@@H](O)[C@@H]2O | 147 |
| C=C(C)[C@H]1CC=C(C(=O)O)CC1 | 171 |
| CCN(CCCc1ccccc1)CCCc1ccccc1.O=C(O)CC(O)(CC(=O)O)C(=O)O | 207 |
| Cc1cccc2c3c(ccc12)C1=C(C(=O)C3=O)[C@@H](C)CO1 | 90 |
| CC(=O)O[C@@H]1CC[C@@]2(C)C(C[C@@H](OC(C)=O)[C@@]3(C)C4=CC(=O)O[C@@H](c5ccoc5)[C@]4(C)CCC23)C1(C)C (stereo partly drawn) | 192 |
| Cc1noc(NS(=O)(=O)c2ccc(N)cc2)c1C | 122 |
| CNC(=O)Oc1ccccc1OC(C)C | 99 |
| COc1ccc(-c2coc3c(O)c(OC)ccc3c2=O)cc1 | 175 |

| SMILES | NORMALIZED SGLT1 ACTIVITY (%) |
| --- | --- |
| Cn1nnnc1SCC1=C(C(=O)O)N2C(=O)[C@@H](NC(=O)[C@H](OC=O)c3ccccc3)[C@H]2SC1 | 94 |
| CC1(C)CC[C@@]2(C(=O)O)C(C1)C1=CCC3[C@@]4(C)CC[C@H](O)C(C)(C)C4CC[C@@]3(C)[C@]1(C)C[C@@H]2O (stereo partly drawn) | -6 |
| OCC(O)C(O)C(O)C(O)C(O)CO (stereo not drawn) | 99 |
| COc1cc(O)c(C)c(O)c1 | 113 |
| O=c1c(O)cccc2cc(O)c(O)c(O)c12 | 137 |
| CCOP(=S)(OCC)SCn1c(=O)oc2cc(Cl)ccc21 | 57 |
| COC(=O)CCC(C)[C@H]1CCC2C3C(C[C@H](O)[C@@]21C)[C@@]1(C)CC[C@@H](O)C[C@H]1C[C@H]3O (stereo partly drawn) | 100 |
| Cc1onc(-c2ccccc2Cl)c1C(=O)N[C@@H]1C(=O)N2[C@@H]1SC(C)(C)[C@@H]2C(=O)[O-].[Na+] | 89 |
| CC(C)[N+](C)(CCC(C(N)=O)(c1ccccc1)c1ccccc1)C(C)C.[I-] | 112 |
| C[C@H](CCC(=O)[O-])[C@H]1CCC2C3C(=O)CC4CC(=O)CC[C@]4(C)C3CC(=O)[C@@]21C.[Na+] (stereo partly drawn) | 90 |
| NCCCC[C@H](N)C(=O)N[C@@H](Cc1ccccc1)C(=O)N[C@@H](Cc1ccc(O)cc1)C(=O)O (H-Lys-Phe-Tyr-OH) | 110 |
| COc1ccc([C@@H](C)C(=O)c2ccc(O)cc2O)cc1 | 120 |
| C[C@@H]1CC[C@@]2(NC1)O[C@H]1C[C@H]3C4CC=C5C[C@@H](O)CC[C@]5(C)C4CC[C@]3(C)C1[C@@H]2C (stereo partly drawn) | 109 |
| OC[C@H]1O[C@@H](O[C@@H]2[C@@H](CO)OC(O)(CO)[C@H]2O)[C@H](O)[C@@H](O)[C@H]1O (mixture of isomers) | 97 |
| CNC(=O)Oc1ccc2c(c1)[C@]1(C)CCN(C)[C@@H]1N2C.O=S(=O)(O)O | 87 |
| CC(C)NCC(O)COc1ccc(CC(N)=O)cc1 (stereo not drawn) | 128 |
| COc1ccc(-c2coc3cc(O)ccc3c2=O)c(OC)c1 | 135 |
| O=C1c2ccccc2C(=O)C1c1ccccc1 | 111 |
| CC1(C)C2CC(=O)[C@]3(C)C(CC[C@@]4(C)[C@H](c5ccoc5)OC(=O)C5OC543)[C@@]2(C)[C@@H](O)C[C@H]1O (stereo partly drawn) | 181 |
| CC(C)=CCC[C@](C)(O)C1CC=C(C)CC1 (stereo partly drawn) | 99 |
| Cl.NC(CO)C(=O)NNCc1ccc(O)c(O)c1O (stereo not drawn) | 108 |
| COc1ccc2cc1Oc1ccc(cc1)C[C@H]1c3c(cc4c(c3Oc3cc5c(cc3OC)CCN(C)[C@@H]5C2)OCO4)CCN1C | 100 |

| SMILES | NORMALIZED SGLT1 ACTIVITY (%) |
| --- | --- |
| COP(=S)(OC)Oc1ccc(Sc2ccc(OP(=S)(OC)OC)cc2)cc1 | 84 |
| COC(=O)N/N=C/c1c[n+]([O-])c2ccccc2[n+]1[O-] | 116 |
| O=C(O)c1ccccc1OP(=O)(O)O | 104 |
| CCOP(=S)(OCC)Oc1nc(Cl)c(Cl)cc1Cl | 35 |
| COc1c(C(C)C)oc2cc3oc(=O)ccc3cc12 | 192 |
| C[C@H]1C[C@@H](O)[C@]2(O)[C@@]13CC(=O)OC[C@@]2(C)[C@](C)(O)C(=O)C3 | 72 |
| CS(C)(=O)=O | 83 |
| COc1cc2c(cc1O)C(Cc1ccc(O)cc1)N(C)CC2 (stereo not drawn) | 89 |
| Cc1ccc2c(Cl)cc(Cl)c(O)c2n1 | 100 |
| COc1cc(O)c2c(=O)cc(-c3ccc(OC)c(-c4c(O)cc(O)c5c(=O)cc(-c6ccc([O-])cc6)oc45)c3)oc2c1.[K+] | 246 |
| CC[C@H]1OC(=O)[C@H](C)C(=O)[C@H](C)[C@@H](O[C@@H]2O[C@H](C)C[C@H](N(C)C)[C@H]2O)[C@](C)(OC)C[C@@H](C)C(=O)[C@H](C)[C@H]2N(CCCCn3cnc(-c4cccnc4)c3)C(=O)O[C@]12C | 103 |
| COc1cc(OC)c(-c2c(OC)cc(OC)cc2OC)c(OC)c1 | 105 |
| Sc1nc2ccccc2s1 | 141 |
| CO[C@@H]1[C@@H](O[C@@H]2O[C@H](C)[C@@H](O[C@H]3C[C@@](C)(O)[C@H](O)[C@H](C)O3)[C@H](N(C)C)[C@H]2O)[C@@H](CC=O)C[C@@H](C)[C@@H](O[C@H]2CC[C@H](N(C)C)[C@@H](C)O2)/C=C/C=C/C[C@H](C)OC(=O)C[C@H]1O | 121 |
| Cc1cc(=O)c2c(O)c3c(cc2o1)OCC(C)CC3 (stereo not drawn) | 155 |
| COc1ccc(-c2coc3cc(O)ccc3c2=O)cc1 | 259 |
| CC(C)(C)N.CCC[C@H](N[C@@H](C)C(=O)N1[C@H](C(=O)O)C[C@@H]2CCCC[C@@H]21)C(=O)OCC | 79 |
| COc1c2c(cc3occ(-c4ccc5c(c4)OCO5)c(=O)c13)OC(C)(C)C=C2 | 131 |
| CC1(C)S[C@@H]2C(N3C(=O)[C@@H](c4ccccc4)NC3(C)C)C(=O)N2[C@H]1C(=O)[O-].[K+] (stereo partly drawn) | 81 |
| CCOc1cccc(C(=O)c2ccc(O)c(O)c2O)c1 | 139 |
| CC(=O)O[C@@H]1CC2C(C)(CC[C@H](O)C2(C)C)C2CC[C@]3(C)C(=CC(=O)O[C@H]3c3ccoc3)C21C (stereo partly drawn) | 215 |
